Measured values taken from the supplement of paper PMC6135742.
Values joined by “and” are separate entries in the source; they are usually repeats but may differ in a detail not shown here. Identical values can stand only once. Counter-ions that a name gives are not always drawn. ± gives the standard deviation of the averaged measurements. Whole data set: some 2,600 compounds, median “MBP+ mature oligodendrocyte number relative to DMSO vehicle control” near -0.34, cut for the highest 2% near 13. This is one part of the list.

Test system: jimpy (Plp1 jimpy) mouse iPSC-derived oligodendrocyte progenitor cells
Assay: MBP+ mature oligodendrocyte number relative to DMSO vehicle control (SDs above negative control mean); higher = more surviving jimpy oligodendrocytes (rescue)
Conditions: 10 µM; 3 days
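Also: 10 µM single dose with 3-day oligodendrocyte differentiation.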

| Compound | MBP+ mature oligodendrocyte number |
| --- | --- |
| Cc1cc(=O)oc2cc(O)ccc12 [4-Methylumbelliferone (4-MU)] | 1.79 |
| Cn1c(=O)c2nc[nH]c2n(C)c1=O [Theophylline] | 0.146 |
| CCCCCCCCCCCCCCCC(=O)OC[C@H](COP(=O)(O)OCCNC(=O)[C@H](C)NC(=O)CC[C@@H](NC(=O)[C@H](C)NC(=O)[C@@H](C)O[C@H]1[C@H](O)[C@@H](CO)OC(O)[C@@H]1NC(C)=O)C(N)=O)OC(=O)CCCCCCCCCCCCCCC (some centres undefined) [Mifamurtide] | -0.284 |
| C=C1c2cccc(O)c2C(=O)C2=C(O)[C@]3(O)C(=O)C(C(N)=O)=C(O)[C@@H](N(C)C)[C@@H]3[C@@H](O)[C@H]12 [Methacycline HCl] | 2.24 |
| c1ccc(C2CN3CCSC3=N2)cc1 (centres undefined) [Tetramisole hydrochloride] | 1.65 |
| Cc1scc2c1N(C(=O)CN1CCN(C)CC1)c1ccccc1NC2=O [Telenzepine dihydrochloride] | 0.824 |
| Cn1c(=O)cc(N2CCC[C@@H](N)C2)n(Cc2cc(F)ccc2C#N)c1=O [Trelagliptin] | 1.71 |
| CN(C)CCC(c1ccc(Cl)cc1)c1ccccn1 (single isomer, unassigned; (+)) [(+)-Chlorpheniramine maleate] | -1.61 |
| O=c1cc(-c2ccc(O)cc2)oc2cc(O)cc(O)c12 [Apigenin] | -0.504 ± 2.2 |
| CO[C@H]1/C=C/O[C@@]2(C)Oc3c(C)c(O)c4c(c3C2=O)C2=NC3(CCN(CC(C)C)CC3)NC2=C(NC(=O)/C(C)=C\C=C\[C@H](C)[C@H](O)[C@@H](C)[C@@H](O)[C@@H](C)[C@H](OC(C)=O)[C@@H]1C)C4=O [Rifabutin] | -4.25 |
| C[C@@H](N)[C@H]1CC[C@H](C(=O)Nc2ccncc2)CC1 | -2.68 and -2.11 |
| c1cnc2cc3c(cc2n1)[C@@H]1CNC[C@H]3C1 [Varenicline Tartrate] | 1.33 |
| c1cnc2cc3c(cc2n1)[C@@H]1CNC[C@H]3C1 [Varenicline tartrate] | -0.511 |
| CCCCCN(CCCOC)C(=O)C(CCC(=O)O)NC(=O)c1ccc(Cl)c(Cl)c1 (centres undefined) [Loxiglumide] | -0.805 |
| O=C(CCCCCCNC(=O)c1cnc(N(c2ccccc2)c2ccccc2)nc1)NO [Rocilinostat (ACY-1215)] | -4.64 |
| O=c1ncccn1[C@@H]1O[C@H](CO)[C@@H](O)[C@H]1O [Zebularine] | 1.67 |
| CN(C)CCN(Cc1cccs1)c1ccccn1 [Methapyrilene hydrochloride] | 0.382 |
| NC(CO)(CO)CO [Trometamol] | 1.5 |
| COc1ccccc1CNC1CCCNC1c1ccccc1 (centres undefined) | -1.71 |
| Clc1ccc(C(Cn2ccnc2)OCc2c(Cl)cccc2Cl)c(Cl)c1 (centres undefined) [Isoconazole nitrate] | 22.9 |
| CCOC(=O)C1=C(C)NC(C)=C(C(=O)OCC)C1c1c(F)c(F)c(F)c(F)c1F [Nemadipine-A] | 2.34 |
| CC(C)n1nc(-c2cc3cc(O)ccc3[nH]2)c2c(N)ncnc21 | < -4.81 |
| NC(=O)N1c2ccccc2C=Cc2ccccc21 [Carbamazepine] | 1.4 ± 1.3 |
| CCc1cccc(N(C)C(=N)Nc2cccc3ccccc23)c1 | -2.04 |
| CC[C@H]1OC(=O)[C@H](C)[C@@H](O[C@H]2C[C@@](C)(OC)[C@@H](O)[C@H](C)O2)[C@H](C)[C@@H](O[C@@H]2O[C@H](C)C[C@H](N(C)C)[C@H]2O)[C@](C)(O)C[C@@H](C)/C(=N\OCOCCOC)[C@H](C)[C@@H](O)[C@]1(C)O [Roxithromycin] | -1.56 |
| O=C1NC(=O)[C@@]2(CCOc3ccc(F)cc32)N1 [Sorbinil] | 1.77 |
| C=C1CC[C@H](O)C/C1=C/C=C1\CCC[C@]2(C)[C@@H]([C@H](C)CCCC(C)(C)O)CC[C@@H]12 [Calcifediol] | 3.34 |

| Compound | MBP+ mature oligodendrocyte number |
| --- | --- |
| CC(C)CC(=O)Nc1n[nH]c2c1CN(C(=O)C1CCN(C)CC1)C2(C)C | < -5.15 |
| O=C(NCCS(=O)(=O)c1ccc(C(F)(F)F)cn1)c1ccc(Cl)cc1 | 3.27 |
| CC(N)=O [Acetamide] | 0.902 |
| CN1CC[C@H](c2c(O)cc(O)c3c(=O)cc(-c4ccccc4Cl)oc23)[C@H](O)C1 [Flavopiridol HCl] | < -6.01 |
| COc1ccc(-c2cc(=O)c3c(O)cc(O)cc3o2)cc1O [Diosmetin] | -1.95 |
| Nc1nc(Cl)nc2c1ncn2[C@@H]1O[C@H](CO)[C@@H](O)[C@@H]1F [Clofarabine] | < -6.7 |
| O=C1CN2Cc3c(ccc(Cl)c3Cl)N=C2N1 [Anagrelide HCl] | 2.25 |
| CC(N)(C(=O)O)c1ccc(C(=O)O)cc1 (racemic) [(±)-alpha-Methyl-4-carboxyphenylglycine] | -1.03 |
| CN(C)Cc1c(C(=O)NCCOc2ccc(C(=O)NO)cc2)oc2ccccc12 | < -6.7 |
| CC(C)NCC(O)COc1ccc(COCCOC(C)C)cc1 (centres undefined) [Bisoprolol hemifumarate salt] | -0.0098 |
| CC(C)NCC(O)COc1ccc(COCCOC(C)C)cc1 (centres undefined) [Bisoprolol fumarate] | < -6.7 |
| CN1C2CCCC1CC(NC(=O)c1nn(C)c3ccccc13)C2 (centres undefined) [Granisetron hydrochloride] | 0.324 |
| CN1C2CCCC1CC(NC(=O)c1nn(C)c3ccccc13)C2 (centres undefined) [Granisetron HCl] | 0.196 |
| N=C(N)c1ccccc1 [Benzamidine hydrochloride] | -0.708 |
| CCCCCc1ccc(/C=C/C(=O)Nc2cc(Cl)ccc2C(=O)O)cc1 | 0.0686 |
| CCN(Cc1ccncc1)C(=O)C(CO)c1ccccc1 (centres undefined) [Tropicamide] | -0.244 ± 1.5 |
| OC(CCN1CCCCC1)(c1ccccc1)C1CC2C=CC1C2 (centres undefined) [Biperiden hydrochloride] | 2.59 |
| OC(CCN1CCCCC1)(c1ccccc1)C1CC2C=CC1C2 (centres undefined) [Biperiden HCl] | 13.7 |
| Cc1ncc([N+](=O)[O-])n1CCO [Metronidazole] | 0.523 |
| CCN(CC)CC#CCOC(=O)C(O)(c1ccccc1)C1CCCCC1 (centres undefined) [Oxybutynin Chloride] | 13.5 |
| CCN(CC)CC#CCOC(=O)C(O)(c1ccccc1)C1CCCCC1 (centres undefined) [Oxybutynin chloride] | 29.7 |
| CC(=O)O/N=C1\C(=O)N(Cc2cc(Cl)ccc2Cl)c2ccc(Cl)cc21 | 5.56 |
| COc1ccc(COc2ccc(Cc3cnc(N)nc3N)cc2OC)cc1 | 4.11 |
| COc1ccc(C(=O)NCc2cccnc2)cc1C(=O)NCc1cccnc1 [Picotamide] | 1.07 |
| CC(C)c1cccc(C(C)C)c1N1C(=O)c2ccc(O)cc2C1=O | 0.61 |
| COC(=O)C1=C(C)NC(C)=C(C(=O)OC)C1c1cccc(NC(=O)NCCCN2CCC(c3cccc(OC)c3)CC2)c1 | < -3.85 |
| C=CC[C@@H]1/C=C(\C)C[C@H](C)C[C@H](OC)[C@H]2O[C@@](O)(C(=O)C(=O)N3CCCC[C@H]3C(=O)O[C@H](/C(C)=C/[C@@H]3CC[C@@H](O)[C@H](OC)C3)[C@H](C)[C@@H](O)CC1=O)[C@H](C)C[C@@H]2OC [Tacrolimus (FK506)] | 4.88 |

| Compound | MBP+ mature oligodendrocyte number |
| --- | --- |
| O=C(N/N=C/c1ccc(O)c(O)c1)c1cc2ccccc2cc1O [Dynasore] | -3.68 |
| Cc1ccc(C(=O)c2cc(O)c(O)c([N+](=O)[O-])c2)cc1 [Tolcapone] | 5.14 |
| O=C([O-])c1ccccc1O.[Na+] [Sodium salicylate] | 0.819 |
| COc1ccc2[nH]cc(CCNC(C)=O)c2c1 [Melatonin] | -1.02 ± 0.38 |
| CCCCS(=O)(=O)N[C@@H](Cc1ccc(OCCCCC2CCNCC2)cc1)C(=O)O [Tirofiban hydrochloride monohydrate] | -0.354 |
| O=C(Nc1cc(C(F)(F)F)ccc1N1CCCCC1)c1ccncc1 | 0.829 |
| COc1cc2nc(N3CCN(C(=O)c4ccco4)CC3)nc(N)c2cc1OC [Prazosin hydrochloride] | < -3.85 |
| COc1cc2nc(N3CCN(C(=O)c4ccco4)CC3)nc(N)c2cc1OC [Prazosin HCl] | < -6.7 |
| NCCS(=O)(=O)O [Taurine] | 1.29 |
| N#CC(C#N)=C(N)/C(C#N)=C/c1ccc(O)cc1 [Tyrphostin AG 112] | -0.14 |
| Cc1ccc(NC(=O)c2ccc(CN3CCN(C)CC3)cc2)cc1Nc1nc(-c2cccnc2)cs1 [Masitinib (AB1010)] | -6.26 |
| COc1nc(C)nc(Cl)c1NC1=NCCN1 [Moxonidine hydrochloride] | -0.167 |
| COc1nc(C)nc(Cl)c1NC1=NCCN1 [Moxonidine] | -0.377 |
| Cc1ccc(S(=O)(=O)NC(=O)NN2CC3CCCC3C2)cc1 (centres undefined) [Gliclazide] | -0.276 |
| c1ccc(C(NCCNC(c2ccccc2)c2ccccc2)c2ccccc2)cc1 | < -3.97 |
| O=c1c(O)c(-c2cc(O)c(O)c(O)c2)oc2cc(O)cc(O)c12 [Myricetin] | -1.47 ± 0.82 |
| Cc1cc(Cn2cnc3c2CC(C(=O)O)N(C(=O)C(c2ccccc2)c2ccccc2)C3)ccc1N(C)C (centres undefined) | 0.998 |
| O=c1[nH]c2ccccc2c2ccccc12 [6(5H)-Phenanthridinone] | -0.783 |
| C#CCN(C)Cc1ccccc1 [Pargyline hydrochloride] | -0.39 |
| COc1ccc2cc(CCC(C)=O)ccc2c1 [Nabumetone] | 1.84 |
| Cc1cccc(/C=C/c2ccccc2)n1 | -0.0684 |
| CCn1cc(C(=O)O)c(=O)c2ccc(C)nc21 [Nalidixic acid sodium] | -1.3 |
| CCn1cc(C(=O)O)c(=O)c2ccc(C)nc21 [Nalidixic acid] | 0.0594 |
| COc1ccc(-c2oc3c(CC=C(C)C)c(O[C@@H]4O[C@H](CO)[C@@H](O)[C@H](O)[C@H]4O)cc(O)c3c(=O)c2O[C@@H]2O[C@@H](C)[C@H](O)[C@@H](O)[C@H]2O)cc1 [Icariin] | -0.108 |
| C[C@H]1[C@@H](O)O[C@@H]2O[C@@]3(C)CC[C@H]4[C@H](C)CC[C@@H]1[C@@]24OO3 [Dihydroartemisinin (DHA)] | -3.91 |
